The text below walks through data of PubChem BioAssay AID1645882 (National Center for Advancing Translational Sciences (NCATS), 2021).

About 120 (0.75%) of roughly 16,000 compounds were called active. Another 4% or so got no clear call; they are omitted. Calls follow the shape of the dose curve; as a rule, active = well fitted inhibition curve with a large enough effect; inconclusive = small, poorly fitted or top-dose-only effect; inactive = no such curve, though single readings can be large or run the other way. This is one part of the list.

UniProt O95398, sequence (O95398 whole entry, looked up): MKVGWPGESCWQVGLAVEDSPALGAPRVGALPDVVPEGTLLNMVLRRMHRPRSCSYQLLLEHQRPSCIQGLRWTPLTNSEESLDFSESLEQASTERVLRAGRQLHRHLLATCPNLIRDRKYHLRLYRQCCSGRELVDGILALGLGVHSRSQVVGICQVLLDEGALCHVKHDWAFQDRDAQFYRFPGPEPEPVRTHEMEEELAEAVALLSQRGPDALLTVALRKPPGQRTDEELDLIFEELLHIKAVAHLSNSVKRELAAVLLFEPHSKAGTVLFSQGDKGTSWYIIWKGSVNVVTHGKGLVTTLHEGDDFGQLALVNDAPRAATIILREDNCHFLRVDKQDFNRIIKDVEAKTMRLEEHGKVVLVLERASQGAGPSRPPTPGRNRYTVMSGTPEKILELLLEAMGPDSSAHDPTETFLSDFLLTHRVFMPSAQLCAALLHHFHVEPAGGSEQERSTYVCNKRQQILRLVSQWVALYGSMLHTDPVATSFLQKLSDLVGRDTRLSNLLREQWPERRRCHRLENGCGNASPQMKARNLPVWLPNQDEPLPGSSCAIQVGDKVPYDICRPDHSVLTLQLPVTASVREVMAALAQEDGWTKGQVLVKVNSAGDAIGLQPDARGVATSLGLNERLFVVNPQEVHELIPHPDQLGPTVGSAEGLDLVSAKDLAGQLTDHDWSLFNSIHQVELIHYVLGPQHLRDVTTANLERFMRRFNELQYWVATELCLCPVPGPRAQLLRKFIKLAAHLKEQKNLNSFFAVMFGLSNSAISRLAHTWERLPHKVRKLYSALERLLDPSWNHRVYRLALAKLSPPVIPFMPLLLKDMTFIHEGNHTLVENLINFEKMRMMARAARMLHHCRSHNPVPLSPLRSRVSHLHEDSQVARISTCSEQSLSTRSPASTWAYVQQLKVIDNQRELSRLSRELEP

The experiment concerns the target Rap guanine nucleotide exchange factor 3 (Homo sapiens) (UniProt O95398). Briefly: Validation qHTS for antagonist of cAMP-regulated guanine nucleotide exchange factor 3 (EPAC1).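 Also: plate controls were DMSO for no effect and ATA control for full effect; nearly all actives have a fitted effect of over 75% in size.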 As to conditions: EPAC1 Rap1B-BODIPY-GDP exchange, fluorescence; series mostly up to 150 µM; activity change, negative = inhibition: at the top concentration. An outline of the steps:
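Nucleotide exchange followed as fluorescence loss when BODIPY-GDP leaves Rap1B (480 nm excitation, 540 nm emission), read at 5 min intervals over 30 min. Reaction: 100 nM EPAC1, 250 nM RAP1B-BODIPY-GDP, 50 uM GDP; ATA and DMSO define normalization.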
(In general: qHTS replaces the single test concentration by a dilution series.)
For the molecule `OCCN1CCN(Cc2ccc3c(c2)CN(Cc2cccc4ncccc24)CCO3)CC1`, the “activity change, negative = inhibition” value is inactive: 8.59%.

In the case of `COc1cccc(-c2ccc3ncnc(NCc4ccc(OC)cc4OC)c3c2)c1`, the “activity change, negative = inhibition” value was inactive: -7.77%. For the molecule `COc1ccc(C(=O)NCC2Cc3cc(C)cc(-c4nc5ccccc5s4)c3O2)c(OC)c1OC` (stereo not given), the “activity change, negative = inhibition” value was inactive: 8.31%. With `Cc1cnc(C)c(-c2cccc3c2OC(CNC(=O)C[C@@H]2C[C@@H](C)NC(=S)N2)C3)n1` (stereo not given in full), the “activity change, negative = inhibition” value was inactive: 19.1%. Take `COc1ccc(CCNCC(O)COc2cccc(C)c2)cc1OC` (stereo not given): the “activity change, negative = inhibition” value was inactive: 22.6%. Regarding `O=C(O)C1CCN(c2ncnc3ccc(-c4ccccc4C(F)(F)F)cc23)CC1`, the “activity change, negative = inhibition” value is inactive: 28.3%. With `COc1cccc(O)c1CN1CCC2(CC1)c1ccccc1[C@@H](NC(=O)c1ccsc1)[C@@H]2OC`, the “activity change, negative = inhibition” value was inactive: 6.54%. As to `COC(=O)N1CCC2(CCCN(Cc3nccs3)C2)CC1`, the “activity change, negative = inhibition” value is inactive: -7.1%.

With `CN1CCCN=C1COC(=O)C(O)(c1ccccc1)C1CCCCC1` (stereo not given), the “activity change, negative = inhibition” value is inactive: 9.28%. As for `CC(C)(Oc1ccc(Cl)cc1)C(=O)O`, the entry is “inactive”; as for `Cc1cnc(CNc2ncnc3ccc(-c4ccccc4C(F)(F)F)cc23)cn1`, inactive: -1.31%. Turning to `[O-][n+]1ccccc1SSc1cccc[n+]1[O-]`, the “activity change, negative = inhibition” value was inactive: 14.7%. On to `Cc1nc2cnc(OCc3ccccc3)nc2n(CCc2ccccc2)c1=O`, for which the “activity change, negative = inhibition” value was inactive: -9.15%. Consider `CC(=O)N[C@@H](CCC(N)=O)C(=O)O`, for which the “activity change, negative = inhibition” value was inactive: 18%. Consider `COc1ccc(-c2c(O)c3c(OC)c4c(cc3oc2=O)OC(C)(C)C=C4)cc1`, for which the “activity change, negative = inhibition” value is inactive: -3.79%. For the molecule `CCOC(=O)C[C@H]1c2cc(F)ccc2S(=O)(=O)N1C(C)(C)C`, the “activity change, negative = inhibition” value is inactive: -2.76%. As for `Cc1ncc2c(c1CNC(=O)c1ccc3c(c1)OCO3)CCN(C(=O)C1Cc3ccccc3O1)C2` (stereo not given), the “activity change, negative = inhibition” value was inactive: 20.6%.

Consider `CC(=O)NO`, for which the “activity change, negative = inhibition” value is inactive: 3.55%. As to `CC(N)(Cc1ccc(O)c(O)c1)C(=O)O` (stereo not given), the “activity change, negative = inhibition” value was inactive: 0.787% [at 75.8 µM]. For `Cc1ccccc1-c1cncnc1NC1CCNCC1`, the “activity change, negative = inhibition” value is inactive: -5.07%. On to `N[C@@H](Cn1ccc(=O)c(O)c1)C(=O)O`, for which the “activity change, negative = inhibition” value is inactive: 7.03% [at 75.8 µM]. With `O=C(Nc1ccc(Cl)c(C(F)(F)F)c1)[C@@H]1CC=C[C@@H]2CCN(C3CCCCC3)C(=O)[C@@H]21`, the “activity change, negative = inhibition” value was inactive: 5.32%.

`C/C=C/C=N/NC(=O)c1ccncc1`: the “activity change, negative = inhibition” value was inactive: 9.32%. Consider `COCC(=O)N1CCC2(CCCN(Cc3ccc(C#N)cc3)C2)CC1`, for which the “activity change, negative = inhibition” value was inactive: 22.4%. Turning to `O=C(Cn1cccn1)N1CCOc2c(cc(-c3ncc(C(F)(F)F)cc3Cl)cc2OCC2CCCO2)C1` (stereo not given), the “activity change, negative = inhibition” value was inactive: 24.5%. Turning to `COc1ccc(CNc2ncncc2-c2ccc(C(=O)N(C)C)cc2)c(OC)c1`, the “activity change, negative = inhibition” value is inactive: -7.94%. For the molecule `COc1cc(O)c2c(=O)c(O)c(-c3ccc(O)c(O)c3)oc2c1`, the “activity change, negative = inhibition” value is inactive: -14.1%. Turning to `C[C@]12CCC3c4ccc(OC(=O)c5ccccc5)cc4CCC3C1CCC2=O` (stereo not given in full), the “activity change, negative = inhibition” value is inactive: 9.41%. In the case of `COC(=O)[C@@H]1CCCN1C(=O)c1c(OC)cc(=O)n2c1CCN(Cc1ccc3c(c1)CCO3)CC2`, the “activity change, negative = inhibition” value is inactive: 11.5%. As for `CCNc1ncc2nc(C)c(=O)n(Cc3cccs3)c2n1`, the “activity change, negative = inhibition” value is inactive: 17.9%.
